# Laboratory results reported in ChEMBL document CHEMBL4888484, “Replenishing the malaria drug discovery pipeline: Screening and hit evaluation of the MMV Hit Generation Library 1 (HGL1) against asexual blood stage Plasmodium falciparum ,using a nano luciferase reporter read-out” (2022).
# In all, about 150,000 compounds went through this assay and about 540 (0.36%) showed an effect of 50% or more. Some of the results follow.
# System: Plasmodium falciparum
# Assay: Primary screen in NF54 nanoGlo assay, in single point, at 2uM, 72h; a lower Z score goes with more inhibition
# Type: functional, Erythrocyte
# Settings: timepoint 72 hour
Structure (SMILES),% Inhibition,Z score
COc1cc(CC2CN(C(=O)c3cc(C)nc(C)c3)C2)cc(OC)c1,5%,-1.09
Cc1cc(C(=O)N2CCN(c3ccccc3)CC2)on1,-8%,1.17
COc1ccc(-c2nc(N(C)C)ncc2S(C)(=O)=O)cc1,-3%,0.42
CC(C)CCNc1c(C#N)c2c(c3nncn13)CN(C(C)C)CC2,-3%,0.63
N#Cc1cccc(OCCN2CCOc3ccccc32)c1,-11%,1.04
CC[C@@H](C(=O)O)N(C)CCc1ccccc1OC,-21%,2.09
C[C@@H](C(=O)N1CCc2ccccc2C1)N(C)Cc1ncnn1C,-3%,0.36
NC(=O)N1CCC(C(=O)N2CCN(S(=O)(=O)c3cccc(Br)c3)CC2)CC1,-10%,0.81
COc1ccc(N2CCN(C(=O)c3cccc4nn[nH]c34)CC2)cc1,-7%,0.73
Cc1cccc(-c2nc(N)nc3c2CN(C(=O)CCC(=O)N(C)C)[C@H]3C)c1,-1%,0.14
COc1ccc(Cl)cc1C(=O)N1CCC2(CC1)CC2(F)F,21%,-2.64
CN(C(=O)CC1=CCCCC1)c1nc2ccccc2o1,-13%,2.28
CC1CCN(c2cc(-c3nccn3CC(=O)NCc3ccccc3Cl)ccn2)CC1,-12%,1.21
Cc1cc(C)n(C[C@H](C)Nc2ncncc2C(=O)O)n1,-6%,1.14
O=C(c1cn(C[C@@H]2CC(F)(F)CN2CC2CCCCC2)nn1)N1CCOCC1,34%,-3.79
Cc1ccc(CNc2ncccc2F)nc1,-4%,0.43
Cn1cnc2cc(C(=O)N3CCCC[C@@H]3CCC(=O)O)ccc21,-4%,0.37
Fc1cc(-c2ccncc2)c2ncccc2c1,-1%,0.16
Cn1ccc2c(-c3ccc4cc[nH]c(=O)c4c3)ccnc21,-9%,0.88
O=C(Cn1cccc1-c1nnc(C2CCC2)o1)Nc1ccc(F)c(Cl)c1,-4%,0.76
CCN(CC)S(=O)(=O)c1ccc(NC(=O)CN(C)C2CCCC2)cc1,0%,-0.01
O=C(N[C@H]1C[C@@H](c2cc(=O)[nH]c(C3CC3)n2)C1)c1ccc(CO)cc1,-4%,0.76

Structure (SMILES),% Inhibition,Z score
O=C(c1ccccc1O)N1CCC(n2ncc3c2CNC3)CC1,-6%,0.92
c1ccc2c(c1)nc(C1CC1)n2Cc1nc(C2CC2)no1,10%,-1.48
O=C(Cc1ccccc1Cl)Nc1ccc(-c2nnc3n2CCCC3)cc1,-21%,1.94
Cc1cc(OC2CN(C(=O)c3ccccc3F)C2)cc(=O)n1C1CC1,-25%,2.91
Cc1cc2c(cc1Br)CN(C(=O)c1ncn(C)n1)CC2,-4%,0.42
COc1ccc2cc1Oc1cccc(c1)CO[C@H]1CCN(C(=O)c3ccc(=O)n(C)c3)C[C@H]1NC(=O)CC2,-7%,1.34
C[C@@H]1CN(CC(=O)N(C)Cc2csc(-c3ccccc3)n2)C[C@H](C)O1,-15%,1.94
COCc1ccc(NC(=O)C[C@@H]2C(=O)Nc3ccccc32)cc1,-14%,1.93
CCCNC(=O)[C@H](C)NC(=O)Nc1cccc(F)c1,-1%,0.16
O=C(Nc1ccc2c(c1)N(C(=O)c1ccccc1)CCC2)OCc1ccccc1,11%,-1.36
CCOc1ccc(S(=O)(=O)N(C)C)cc1NC(=O)N1CCOC[C@@H]1CCO,-2%,0.27
Cc1cc(OCC(=O)Nc2ccc(F)cc2)nc(N2CCC[C@H](C)C2)n1,-13%,2.14
CC(C)=CCN1CCC[C@H](CNC(=O)c2ccncc2)C1,-2%,0.42
CCCN(C(=O)Cc1cccc(C)c1)[C@H]1CCNC1,-11%,1.07
Cc1nc(O)c2c(n1)CN([C@@H](C)c1nc3ccccc3n1C(F)F)C2,-7%,0.98
Cc1cc(-c2nc(COCC(F)(F)C(F)F)no2)n[nH]1,-4%,0.63
Cc1c(C(=O)NC2CCCCC2C(F)(F)F)nnn1C1CCNCC1 (configuration not stated),-13%,2.21
Cc1cccc(N2CCN(C(=O)CCn3cncn3)CC2)c1C,-4%,0.56
O=C(NCc1ccc(F)cc1)c1cn2c(n1)CC[C@H](c1ccccc1)C2,-4%,0.53
COc1ccc(-c2cnc(C(=O)NCCc3c[nH]c4ccccc34)o2)cc1,-7%,0.97
O=C(c1ccc2scnc2c1)N1CCC2(CCC(O)CC2)CC1,2%,-0.28
COC[C@H](C)NC(=O)COc1ccc(Cl)cc1Br,-1%,0.21

Structure (SMILES),% Inhibition,Z score
CCCCc1ccc(NCc2c[nH]c3ccccc23)cc1,1%,-0.17
O=C(NC(c1ccccc1)c1ccccc1)N1CCC(N2C(=O)COC2=O)CC1,-15%,2.82
CC(C)CO[C@@H](C)C(=O)Nc1ccc(F)cc1,-4%,0.81
Cc1ccc(F)c(C(=O)NC[C@H]2CC(C(N)=O)=NO2)c1,-3%,0.52
Cn1cc(S(=O)(=O)NC[C@H](O)c2cccs2)cn1,-8%,1.31
CN1C(=O)C[C@H](NS(=O)(=O)Cc2cc(Cl)ccc2F)C1=O,7%,-0.58
CCCCc1ccc(N(C)C(=O)c2cnc(C(=O)O)cn2)cc1,-11%,2.04
COCCN1CCN(C(=O)Cc2ccc(C)nc2)CC1=O,-12%,1.98
CCCN(C(=O)c1ccc(C)cc1)c1nc(-c2ccc(C3CCCCC3)cc2)cs1,-4%,0.58
Cc1cccc(OCC(=O)c2ccc3c(c2)N([C@@H](C)C(=O)N2CCCC2)C(=O)CO3)c1C,-16%,1.42
COc1ccc(S(=O)(=O)N2C[C@H](C)N(C(=O)N3CCOCC3)C2)cc1,26%,-2.98
COCCN1CC[C@H](N2CCCN(C(=O)c3ccc(C(C)C)cc3)CC2)C1=O,-11%,1.42
CC(C)n1cc(NC(=O)N2CCCC(C)(C)CC2)cn1,-10%,1.29
Nc1nnc(CCCC2CCCCC2)s1,-36%,4.26
Cc1cc(NC(=O)C(C)N2CCOC(c3nc(C)cs3)C2)on1 (configuration not stated),-15%,1.29
CC(C)Cn1ncc(NC(=O)N2CC(C)(C#N)C2)c1C1CC1,13%,-1.85
N#Cc1ccc(CC(=O)NC2CC(C3CCCCC3)C2)cn1 (configuration not stated),6%,-0.86
O=C(NCCOCCn1ccnc1)OCc1ccccn1,-4%,0.46
Cc1nccc(N2CC[C@](C)(O)[C@H](Cc3ccccc3)C2)n1,17%,-2.2
O=C(c1cccs1)N1CC[C@H](c2nnc(Cc3ccccc3)o2)C1,-5%,0.6
O=C(N[C@@H]1CCOc2c(F)cccc21)c1cnc2n1CCCCC2,-2%,0.32
Nc1nc(N2CCC[C@H](CCC(=O)O)C2)cc(-n2cccn2)n1,16%,-2.1

Structure (SMILES),% Inhibition,Z score
CC(C(=O)NCC1CCCO1)N1CCCC1Cn1cccn1 (configuration not stated),-7%,0.55
COCc1nc(C2(CC3CC3)CCN(S(=O)(=O)C(C)C)CC2)no1,-15%,1.95
O=C(NCCOc1cccc(F)c1)c1cccnc1NC1CCCC1,36%,-5.25
COc1cc(-c2cnnc(NC[C@H](C)Oc3cccnc3)n2)cc(OC)c1OC,-13%,2.61
Cc1ccc(C(=O)N/C(=N/c2cccc(C)c2)N2CCN(Cc3cccc(F)c3)CC2)cc1,-2%,0.45
Cc1cccc(Oc2cc(N)cc(Oc3cccc(C)c3)c2)c1,33%,-0.75
COCCCN1C(=O)C2(CCN(Cc3ccoc3)CC2)Nc2ccccc21,-6%,0.86
O=c1cc2c(nn1CN1CCC(Cc3ccccc3)CC1)CCC2,1%,-0.09
Cn1cc(-c2ccccc2)cc1C(N)=O,-10%,1.12
COCCNS(=O)(=O)c1cc(C)c(Br)cc1C(C)C,-7%,0.67
O=C(CCC(F)(F)F)N1CCC[C@H](c2ncncc2-c2ccccc2Cl)C1,2%,-0.29
C[C@@H](CNC(=O)N(C)CC1(O)CCOCC1)c1cccs1,-1%,0.07
COc1cccc2c1CCc1c(C(=O)N[C@H]3CCS(=O)(=O)C3)n[nH]c1-2,-5%,0.66
O=C(O)Cn1nc(COc2cccc(Cl)c2)nc1C1CCC1,-1%,0.13
CC(C1Cc2ccccc2O1)N(C)C(=O)c1ncoc1C1CC1 (configuration not stated),2%,-0.22
Cc1ccc2[nH]cc(-c3cncc(C(=O)O)c3)c2c1,-8%,1.1
O=C(Cn1ncc(-c2ccccc2)nc1=O)N1CCc2ccccc21,15%,-1.87
CCCOc1cccc(-c2nc(=O)c(CCC(=O)N3CCCC3)n[nH]2)c1,-7%,1.05
COc1cccnc1NC(=O)NC1CC(OC)(OC)C1,-8%,1.58
CC(C)CC[C@@]1(C2CCN(C(=O)c3sccc3Cl)CC2)NC(=O)N(Cc2ccccn2)C1=O,-3%,0.63
